Tests used:
[1] = tested on: target antigen of Hetumomab on the surface of living cells; test: live cell immunofluorescence staining of tumor cell lines; assay type: binding, human; details: MHCC97L, Bel7402-V13, A549, SPCA-1, SNU-5, BGC-823
Description: The expression of monoclonal antibody Hetumomab target antigen on the surface of living cells in various human tumor cell lines such as liver cancer, lung cancer and gastric cancer cell lines was detected by conventional viable cell immunofluorescence staining. The specific technical methods are as follows: cells were grown on slides or inoculated in a 96-well culture plate (4×10^3 cells/well) and grown to 60% to 70% of the full plate, then washed with serum-free culture fluid twice, washed with PBS once. Primary antibody (hybridoma supernatant or purified antibody) was added (with mouse anti-α-tublin antibody (dilution: 1:1000) as control for cell permeability, and the normal mouse IgG, SP2/0 supernatant, PBS as negative control), and then incubated at room temperature for 1 h; washed with the live cell washing liquid (PBS containing 1% BSA) for 5 times and 5 min each time, and then fixed for 15 min with 4% paraformaldehyde at room temperature; washed with fix cell washing liquid (PBS containing 0.1% BSA, 0.05% tween-20) for 5 times and 5 min each time. […] Membrane fluorescence staining observed in some cells was deemed as positive.

[2] = tested on: target antigen of Hetumomab in human lung cancer tissues; test: immunohistochemistry of lung tissues; assay type: binding
From the text: (§1) By using conventional immunohistochemical techniques, the expression of the target antigen of Hetumomab in many human liver cancer, lung cancer, gastric cancer patients and other related tissues was detected by taking Hetumomab as the primary antibody, and the anti-mouse antibody as the secondary antibody.
By using Hetumomab as the primary antibody, the expression of the target antigen of Hetumomab was detected in human lung cancer tissues of 160 cases, para-carcinoma tissues of 32 cases, and normal lung tissues of 3 cases.

[3] = tested on: target antigen of Hetumomab in human gastric cancer tissues; test: immunohistochemistry of gastric tissues; assay type: binding
From the text: as §1
By using Hetumomab as the primary antibody, the expression of the target antigen of Hetumomab was detected in human gastric cancer tissues of 110 cases, para-carcinoma tissues of 20 cases, and normal gastric tissues of 3 cases.

[4] = tested on: ESA+ stem cells of Bel7402-V13; test: two-color flow fluorimetry co-staining with ESA; assay type: binding, human
From the text: In order to detect liver cancer stem cells in human liver cancer cell line Bel7402-V13 cells reconginized by monoclonal antibody Hetumomab, which are also ESA and CD90 marker positive, we used two-color flow fluorimetry to stain the human liver cancer cell line Bel7402-V13 cells after culture for 5 days in a serum-free medium.
That is, Hetumomab recognized 40.2% of ESA^+ stem cells. Human liver cancer MHCC97L cells cultured for 5 days in a serum-free medium were stained.

CD44+ cells of SNU-5 [5] = test: sphere-forming inhibition (self-renewal); assay type: cell-based, human; details: SNU-5 CD44+
Description: (§2) The main manifestation of the self-renewal ability of tumor stem cells is the ability to form spheres in serum-free medium, which is called asymmetric division, that is, when one cell divides into two daughter cells, one of the daughter cells maintains the same features as the parental cell, while the other daughter cell may continue to divide, forming normal daughter cells. […] And then Hetumomab (250 μg/mL) was used as the experimental group, and the PBS was used as a negative control group to incubate with the cells at 37° C. for 2 h, during which the cells were mixed with the antibody or the negative control once every half an hour. 500 cells in each group were inoculated into a semi-solid sphere medium (containing EGF, LIF, bFGF, etc.) containing 0.8% methylcellulose, and cultured in an ultra-low adhesion 24-well plate. 1-1.5 mL liquid medium was added every other day, and the number of spheres formed from the two groups was observed after 14 days.

SPCA-1 cells = test: sphere-forming inhibition (self-renewal); assay type: cell-based, human
Description: as §2

CD44+ cells of SNU-5 [6] = test: Transwell invasion inhibition; assay type: cell-based, human; details: for Cells/Field of Vision (invasion): SNU-5 CD44+
From the text: (§3) High invasiveness is another important biological feature of cancer stem cells.

SPCA-1 sphere cells = test: Transwell invasion inhibition; assay type: cell-based, human
From the text: as §3

[7] = tested on: SPCA-1 transplanted tumor; test: human lung cancer transplanted tumor treated with Hetumomab; assay type: in vivo, nude mice; details: day 28
Description: Specifically, the sphere cells of the human lung cancer cell line SPCA-1 were harvested and inoculated in nude mice at 2.5×10^5 cells/mouse. The mice were divided into following 5 groups, with 5 mice in each group: the PBS control group; the chemotherapy group (cisplatin 0.3 mg/kg); the high dose antibody Hetumomab group (40 mg/kg); the medium dose antibody Hetumomab group (10 mg/kg); and the low dose Hetumomab group (2.5 mg/kg). The antibody treatment was started on the second day after inoculation of lung cancer cells. The experimental groups and the control group were treated by intraperitoneal injection. The treatments were performed for 28 days after inoculation. The chemotherapeutic drug group was treated twice a week. The major and minor diameters of the subcutaneously transplanted tumors were measured twice a week. The tumor volume was calculated with the formula V=(π/6)×(major diameter×minor diameter×minor diameter). The change in tumor volume in each group was observed.

B1: Hetumomab: mouse monoclonal antibody (IgG1, κ) against human tumor stem cells, hybridoma CGMCC NO. 12251; VL SEQ ID NO:1, VH SEQ ID NO:5 (antibody, V domains shown)
VH: QVTLKESGPGILQPSQTLSLTCSFSGFSLSTSGMGVSWIRQPSGKGLEWLAHIYWDDDKRYNPSLKSRLTISKDSSNNQVFLKITSVDTADTATYYCARSFYYYANNSFAYWGQGTLVTVSS
VL: DIVMTQAAFSNPVTLGTSASISCRSSKSLLHSNGITYLYWFLQKPGQSPQLLIYQMSNLASGVPDRFSSSGSGTDFTLRISRVEAEDVGVYYCAQNLELYTFGGGTKLEIK
modifications: Hetumomab heavy chain variable region; Hetumomab light chain variable region
target antigen on the surface of living cells [1]: expressed on the surface of living cells | Proportion of Positive Cases (%) ([2]; Lung Cancer Para-carcinoma Tissue): 6.25% | Proportion of Positive Cases (%) ([2]; Lung Cancer Tissue, 160 cases): 82.5% | Proportion of Positive Cases (%) ([2]; Normal Lung Tissue): 0% | Proportion of Positive Cases (%) ([3]; Gastric Cancer Para-carcinoma Tissue): 0% | Proportion of Positive Cases (%) ([3]; Gastric Cancer Tissue, 110 cases): 93.64% | Proportion of Positive Cases (%) ([3]; Normal Gastric Tissue): 0% | Co-staining ratio with ESA ([4]; Bel7402-V13): 3.63% | share of ESA+ stem cells recognized ([4]; Bel7402-V13): 40.2% | Hetumomab+ cell ratio ([4]; Bel7402-V13, 5 days serum-free): 8.52% | Number of formed spheres (CD44+ cells of SNU-5 [5]; antibody 10 μg/ml): 103 ± 3.5 | Number of formed spheres (CD44+ cells of SNU-5 [5]; antibody 20 μg/ml): 60 ± 4.2 | Number of formed spheres (CD44+ cells of SNU-5 [5]; antibody 40 μg/ml): 32 ± 1.5 | Number of formed spheres (CD44+ cells of SNU-5 [5]; antibody 80 μg/ml): 27 ± 2.4 | Number of formed spheres (CD44+ cells of SNU-5 [5]; antibody 144 μg/ml): 18 ± 2.0 | inhibition ratio of sphere-formation (CD44+ cells of SNU-5 [5]; highest concentration of antibody): 85.9% | Number of formed spheres (SPCA-1 cells; SPCA-1, antibody 200 μg/ml): 128.3 ± 7.1 | Number of formed spheres (SPCA-1 cells; SPCA-1, antibody 400 μg/ml): 113.7 ± 3.8 | Number of formed spheres (SPCA-1 cells; SPCA-1, antibody 800 μg/ml): 88.3 ± 7.2 | inhibition ratio of sphere-formation (SPCA-1 cells; SPCA-1, highest concentration of antibody): 41.6% | inhibition rate of invasion (CD44+ cells of SNU-5 [6]; SNU-5 CD44+ cells vs PBS): 75.8% | Cells/Field of Vision (invasion) (CD44+ cells of SNU-5 [6]; antibody 10 μg/ml): 146 ± 3.5 | Cells/Field of Vision (invasion) (CD44+ cells of SNU-5 [6]; antibody 20 μg/ml): 124 ± 3.0 | Cells/Field of Vision (invasion) (CD44+ cells of SNU-5 [6]; antibody 40 μg/ml): 108 ± 5.0 | Cells/Field of Vision (invasion) (CD44+ cells of SNU-5 [6]; antibody 80 μg/ml): 93 ± 2.5 | Cells/Field of Vision (invasion) (CD44+ cells of SNU-5 [6]; antibody 144 μg/ml): 56 ± 4.0 | Cells/Field of Vision (invasion) (SPCA-1 sphere cells; SPCA-1, antibody 200 μg/ml): 205.7 ± 8.5 | Cells/Field of Vision (invasion) (SPCA-1 sphere cells; SPCA-1, antibody 400 μg/ml): 171.3 ± 4.9 | Cells/Field of Vision (invasion) (SPCA-1 sphere cells; SPCA-1, antibody 800 μg/ml): 153.0 ± 6.1 | inhibition rate of invasion (SPCA-1 sphere cells; SPCA-1 sphere cells vs PBS): 34.1% | Tumor Volume Inhibition Rate (%) ([7]; High Dose 40 mg/kg i.p.): 55.97% | Tumor Volume Inhibition Rate (%) ([7]; Low Dose 2.5 mg/kg i.p.): 35.58% | Tumor Volume Inhibition Rate (%) ([7]; Medium Dose 10 mg/kg i.p.): 43.56%

Source: patent publication US20210147571A1, “MONOCLONAL ANTIBODY TARGETING HUMAN TUMOR STEM CELLS AND USE THEREOF” (Suzhou Bojuhua Biomedical Technology Co. Ltd, priority 2017, published 2021)
